Source: article PMC4336329 (PLoS ONE, 2015)
About 2,200 (0.71%) of roughly 310,000 compounds showed an effect of 50% or more. The effect is printed as a negative number. The list shows a part of the results.

target: human ether-à-go-go-related gene (hERG) potassium channel (human, UniProt Q12809); assay: primary screen, population patch clamp on CHO cells stably expressing hERG
Sequence (Q12809 whole entry, looked up): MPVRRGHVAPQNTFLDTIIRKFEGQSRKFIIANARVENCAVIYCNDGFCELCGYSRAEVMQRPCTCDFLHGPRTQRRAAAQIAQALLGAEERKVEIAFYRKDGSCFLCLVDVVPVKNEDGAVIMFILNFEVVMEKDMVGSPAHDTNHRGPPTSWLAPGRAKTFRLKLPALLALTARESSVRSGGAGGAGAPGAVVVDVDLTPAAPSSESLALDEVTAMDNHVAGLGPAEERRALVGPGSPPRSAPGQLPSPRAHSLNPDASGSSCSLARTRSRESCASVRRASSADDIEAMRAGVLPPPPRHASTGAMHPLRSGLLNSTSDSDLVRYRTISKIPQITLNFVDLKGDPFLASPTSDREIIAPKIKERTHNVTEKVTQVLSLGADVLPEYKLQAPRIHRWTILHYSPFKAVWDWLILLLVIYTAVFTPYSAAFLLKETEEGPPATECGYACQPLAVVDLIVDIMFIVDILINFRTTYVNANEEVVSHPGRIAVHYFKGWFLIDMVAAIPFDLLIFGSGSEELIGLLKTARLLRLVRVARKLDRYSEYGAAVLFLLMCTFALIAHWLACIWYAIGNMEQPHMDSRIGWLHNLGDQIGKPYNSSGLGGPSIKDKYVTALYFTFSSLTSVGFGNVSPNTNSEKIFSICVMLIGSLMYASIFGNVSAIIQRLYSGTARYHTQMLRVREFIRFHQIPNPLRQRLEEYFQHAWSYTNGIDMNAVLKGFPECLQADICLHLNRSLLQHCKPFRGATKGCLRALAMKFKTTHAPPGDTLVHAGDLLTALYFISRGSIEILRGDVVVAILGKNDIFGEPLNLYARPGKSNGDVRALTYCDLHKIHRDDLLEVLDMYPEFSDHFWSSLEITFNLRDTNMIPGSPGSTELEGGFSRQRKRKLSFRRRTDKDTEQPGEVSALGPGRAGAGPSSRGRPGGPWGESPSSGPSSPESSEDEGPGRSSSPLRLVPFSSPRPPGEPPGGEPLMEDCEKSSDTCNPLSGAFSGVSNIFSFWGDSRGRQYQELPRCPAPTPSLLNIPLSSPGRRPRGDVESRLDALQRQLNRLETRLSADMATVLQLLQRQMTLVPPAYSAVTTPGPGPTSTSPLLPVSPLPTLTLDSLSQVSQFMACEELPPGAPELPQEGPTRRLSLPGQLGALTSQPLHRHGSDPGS

SMILES | hERG current change (%, negative = inhibition) at 1uM [%]
Cc1nnsc1C(=O)N1CCN(c2cc(C(F)(F)F)ccn2)CC1 | 2.07
CCC(C)Nc1ccc(NC(C)CC)cc1 (stereo not shown) | 10.9
CC(C)(C)c1ccc(S(=O)(=O)N2CCN(CCC#N)CC2)cc1 | 10.1
Nc1ncnc2c1nc(Br)n2[C@@H]1O[C@@H]2COP(=O)([O-])O[C@H]2[C@H]1O.[Na+] | 10.9
O=C(O)/C=C\C(=O)O.O=[N+]([O-])c1ccc2nc(N3CCNCC3)ccc2c1 | 1.34
Cc1ccc(NP(=O)(Nc2ccc(C)cc2)Oc2ccccc2)cc1 | 15.8
Cc1ccc(CNC(=O)c2ccccc2NC(=O)C2=CSCCO2)cc1 | 29.6
Cc1cccc(C(=O)NC2CCN(S(=O)(=O)c3ccccc3)CC2)c1 | 8.48
CCN1C(=O)CSc2ccc(C(=O)NCc3ccccc3OC)cc21 | 3.87
CC(CN1CCN(C)CC1)OC(=O)c1ccc(Cl)cc1.Cl (stereo not shown) | -5.19
CCN(CC(=O)Nc1ccccc1C(F)(F)F)C(=O)COc1cccc2c1OC(C)(C)C2 | 8.31
Cc1ccc(S(=O)(=O)CCN2CCC(n3cccc3)CC2)cc1 | 12.2
CCC(CO)Nc1ccc([N+](=O)[O-])c2cccnc12 (stereo not shown) | -0.746
CCOC(=O)C1CCN(C(=O)C2CC(=O)N(c3ccc(C)cc3)C2)CC1 (stereo not shown) | -1.63
O=C(Nc1ccccc1C(F)(F)F)C(O)(c1ccccc1)C1CCCCC1 (stereo not shown) | 13.1
Cl.OC(COC(c1ccc(Cl)cc1)c1ccc(Cl)cc1)CN1CCc2ccccc2C1 (stereo not shown) | -6.99
OCCNC(=S)NC1CCCCC1 | 6.49
COc1ccc(S(=O)(=O)N(CC(=O)Nc2ccc(S(=O)(=O)N3CCOCC3)cc2)c2ccccc2)cc1 | 12
NC(=O)c1cc2ccccc2o/c1=N\NC(=O)c1ccco1 | 3.6
O=C(O)/C=C\C(=O)Nc1ccc(N2CCN(c3ccc(F)cc3)CC2)cc1 | 1.25
COc1ccc(N2CCN(C(=O)CCCn3c(=O)[nH]c4cc(Cl)ccc4c3=O)CC2)cc1 | 15.9
CCOc1ccccc1C(=O)OCC(=O)Nc1nnc(-c2ccccc2)o1 | -3.82
COc1ccccc1N(CN1CCCC1=O)C(=O)c1c(F)cccc1F | -0.165
CC(NC(=O)c1ccc(F)cc1)c1nc2ccccc2n1Cc1ccccc1F (stereo not shown) | 15.8
O=C(CN1C(=O)NC2(CCCCC2)C1=O)N1CCN(S(=O)(=O)c2ccccc2)CC1 | 14.7
Cc1ccc(CN2CCC(CNC(=O)c3ccc(NC(=O)C4=CSCCO4)cc3)CC2)cc1 | 2.92
O=C(O)C(=O)O.OC(CNCc1ccccc1)Cn1ccc2ccccc21 (stereo not shown) | 4.11
COc1ccc(NC(=O)CCCn2c(=O)c3sccc3n(Cc3ccccc3C)c2=O)cc1 | -2.98

SMILES | hERG current change (%, negative = inhibition) at 1uM [%]
CC1(C)CC(=O)C(C=NCCN2CCN(C(=S)NC3CCCCC3)CC2)=C(O)C1 | -1.15
O=C(N/N=C/c1cccc(Cl)c1Cl)Nc1ccccc1 | 3.9
CC(C)Oc1ccc(S(=O)(=O)N2CCOCC2)cc1NC(=O)C(C)Oc1ccc(F)cc1 (stereo not shown) | 19.7
CN(C)/C=C(\C=O)c1cccc(Cl)c1 | 6.18
CCCC(=O)N1CCN(c2ccc(NC(=O)c3cccs3)cc2Cl)CC1 | -22.1
CCCc1oc(C(=O)O)cc1CN1CCCC1.Cl | 3.77
CCn1cc(CNC(=O)c2cccc([N+](=O)[O-])c2)c(C)n1 | -7.6
Cc1ccc(CN2CCN(C(=O)CCN3C(=O)c4ccccc4C3=O)CC2)cc1 | -4
Cn1nc(C(=O)Nc2ccccc2)c2c1-c1ccccc1S(=O)(=O)C2 | 2.76
CCOC(=O)C(C(=O)N1CCOCC1)C1CCCCC1 (stereo not shown) | 12.9
Fc1ccc(-[n+]2nc(Nc3ccccc3)sc2-c2c3ccccc3cc3ccccc23)cc1.[Cl-] | 15.6
CC(NC(=O)Cc1ccc(NS(=O)(=O)c2cccc(C(F)(F)F)c2)cc1)c1ccccn1 (stereo not shown) | 6.76
O=C(Nc1ccccc1)C1=C[C@H](c2coc3ccccc3c2=O)C[C@H](OCc2ccc(CO)cc2)O1 | 12.4
O=C(CSc1nc(-c2ccc(F)cc2)cs1)N1CCN(C(=O)c2ccco2)CC1 | -43.2
COc1ccccc1CNC(=O)CN(C)S(=O)(=O)c1ccc2c(c1)n(C)c(=O)c(=O)n2C | 12.8
CC(CN1CCOCC1)OC(=O)CCc1ccccc1 (stereo not shown) | 15.2
COc1cc(C)c(CN2CCN(c3ccccc3)CC2)cc1C | -1.98
O=C(Nc1ccc2nc(-c3cccs3)c(-c3cccs3)nc2c1)NC1CC1 | 4.21
CC(C)c1ccc(CNc2nc3nc4c(c(=O)n3[nH]2)CCC4)cc1 | 10.8
Cc1ccc(S(=O)(=O)Nc2ccc3[nH]ccc3c2)cc1 | 8.9
CC(=O)Nc1ccc(S(=O)(=O)NC(C(=O)O)C(C)C)cc1 (stereo not shown) | 2
O=C(Nc1c(C(=O)N2CCOCC2)cnn1-c1ccccc1)c1ccco1 | 5.57
COc1ccc(Oc2cc(Cl)nc(N)n2)cc1 | 1.62
CC(OC(=O)c1cccc(O)c1)C(=O)N(C)Cc1ccccc1 (stereo not shown) | 13.6
Cc1ccccc1-n1c(SCC(=O)N(C)C2CCS(=O)(=O)C2)nc2ccccc2c1=O (stereo not shown) | 7.14
CN(Cc1nccn1C)C(=O)c1cc(COc2ccc3ncccc3c2)on1 | 11.5
CCCCOc1ccc(Cl)cc1CSc1nnc(C)n1N | 0.126
